In the supplement of paper PMC4723716 one finds viability index data, which are given here for 56 molecules.

Whole data set: some 3,600 compounds, median “viability index relative to DMSO control” near 0.81, cut for the lowest 2% near 0.13. The list shows a part of the results.
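Note: 384-well serum-free SaLSSA: MitoTracker Red CMXRos staining with saponin lysis, high-content imaging, treated-well particle count divided by plate-mean count of DMSO wells.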

This assay relates to Plasmodium falciparum NF54 stage V gametocytes. The experiment in a line: viability index relative to DMSO control (fraction); higher = less gametocyte killing. The note with it: 1.25 µM, incubation time: 72 h.
`Cc1cccc(N2C(=O)C3C(C2=O)C2(c4ccccc4)C(=O)C3(c3ccccc3)C(c3ccccc3)=C2c2ccccc2)c1` (stereo unspecified) gave a viability index of 0.943.

As to `Cc1ccc(Cn2c(N3CCC(C(=O)NCc4ccccn4)CC3)nc3ccccc32)cc1`, the viability index was determined as 0.614.

The molecule `CC1CC(C)CN(CCCNc2ccc(C(=O)Nc3ccc(C(F)(F)F)cc3)cc2[N+](=O)[O-])C1` (stereo unspecified) returned a viability index of 1.06.

Molecule `FC(F)(F)c1cccc(-c2cncc(N3CCN(c4ccccn4)CC3)n2)c1` gave a viability index of 0.494.

`CC1=C(C(=O)Nc2ccccn2)C(c2ccc(O)cc2)n2ncnc2N1` (stereo unspecified) came in with a viability index of 1.13.

As to `O=C(COc1ccccc1)NC(c1ccc([N+](=O)[O-])cc1)c1cc(Cl)c2cccnc2c1O` (stereo unspecified), the viability index came to 0.606.

In turn, `CCCc1c(C(=O)OCC)c2cc(O)ccc2n1-c1ccc(OC)cc1` had a viability index of 0.731.

As for `COCCNC(=O)CN1C(=O)CC(C)(C)Sc2ccccc21`, the viability index was 0.909.

Consider `O=C(NC(=S)Nc1ccc([N+](=O)[O-])cc1Cl)c1ccco1`, for which the viability index came out at 0.86.

The molecule `CC(C)=CCCC(C)=CCCC(C)NCCN1CCNCC1` (stereo unspecified) returned a viability index of 0.135.

`COc1ccc(NC(=O)CCn2c(=S)oc3ccccc32)c([N+](=O)[O-])c1` came in with a viability index of 1.17.

On to `CCOc1ccc(S(=O)(=O)N=C2C=C(Nc3ccc(O)cc3)C(=O)c3ccccc32)cc1`, for which the viability index came out at 0.386.

Molecule `CCOC(=O)N1CCC(NC(=O)CSCc2nc(-c3cccc(OC)c3)oc2C)CC1` yielded a viability index of 0.964.

In the case of `CC(=O)C(=NNc1cc(C(F)(F)F)cc(C(F)(F)F)c1)C(C)=O`, the viability index was 0.739.

Take `CCCOc1ccc(NC(=O)c2ccco2)cc1`: the viability index was 0.939.

In turn, `CCCN(CCC)CC(O)COc1ccccc1C(=O)Nc1ccccc1` (stereo unspecified) yielded a viability index of 0.65.

Turning to `Nc1cc(OC(=O)c2ccccc2)nn1S(=O)(=O)c1ccc(Cl)cc1`, the viability index amounted to 0.964.

For the molecule `CCc1noc(C)c1C(=O)NCCN1Cc2ccccc2OC(c2ccsc2)C1` (stereo unspecified), the viability index came to 1.47.

As for `Cc1cc(N2CCCC2)nc2ccc(NC(=S)NCCCN3CCc4ccccc4C3)cc12`, the viability index turned out to be 1.32.

In turn, `Cc1ccc(-c2nnc(NCc3ccccc3)c3ccccc23)cc1S(=O)(=O)NCC1CCCO1` (stereo unspecified) showed a viability index of 0.792.

`CC(C)(C)Cc1ccc(OCCCC(=O)Nc2ccc(Cl)c(N)c2)c(CC(C)(C)C)c1` came in with a viability index of 0.947.

`Cc1ccc(-c2c[n+](-c3ccccc3)c3n2CCCS3)cc1` returned a viability index of 0.925.

`c1ccc2[nH]c(CN(Cc3nc4ccccc4[nH]3)Cc3nc4ccccc4[nH]3)nc2c1`: the viability index was 0.949.

With `COc1cccc(-c2ccc(O)c(CN3CCC(C)CC3)c2)n1`, the viability index came out at 0.885.

In turn, `Cc1nc([P+](c2ccccc2)(c2ccccc2)c2ccccc2)c(N2CCCCC2)o1` gave a viability index of 0.22.

Turning to `CCOc1ccc(CCNC(=O)c2cccs2)cc1OCC`, the viability index turned out to be 0.851.

In turn, `CCOc1ccc(N(C(=O)C2COc3ccccc3O2)C(C(=O)NC2CCCCC2)c2cn(C)nc2C)cc1` (stereo unspecified) came in with a viability index of 0.779.

Molecule `COc1ccc(-c2noc(CNC(=O)c3cccc(I)c3)n2)cc1` had a viability index of 1.03.

As for `COc1cc(N)c(Cl)cc1C(=O)NCC1CCN(c2nc(C)cc(C)n2)CC1`, the viability index is 0.826.

For the molecule `COc1cc(C=NNc2nc3ccccc3[nH]2)cc(OC)c1OC`, the viability index was determined as 1.04.

Molecule `COc1ccc(-c2c[n+](CC(=O)c3ccccc3Cl)c3n2CCC3)cc1` displayed a viability index of 1.07.

Molecule `COc1cccc2c1OCC(C(=O)Nc1ccc(C)cc1)=C2` gave a viability index of 0.822.

With `COc1cc(NC(=O)C=Cc2ccccc2Cl)cc(OC)c1OC`, the viability index was determined as 0.444.

With `CCOC(=O)c1cnc2c(Cl)cccc2c1Nc1cccc(C(C)=O)c1`, the viability index came to 0.936.

In turn, `N#Cc1c(N)nc2sc(C(=O)Nc3ccc(Br)cc3)c(N)c2c1-c1ccccc1` registered a viability index of 0.496.

`CCOCCCNC(=O)C1CCCN(S(=O)(=O)c2ccc(C)cc2)C1` (stereo unspecified) returned a viability index of 0.971.

`Cc1ccccc1Cn1c(N2CCC(C(=O)NCc3ccccn3)CC2)nc2ccccc21` came in with a viability index of 0.972.

For `COc1cc(-c2nc(-c3ccccc3)c(-c3cccc(C(F)(F)F)c3)[nH]2)cc(OC)c1O`, the viability index was 0.815.

The molecule `CC(=O)Nc1ccc(S(=O)(=O)N(C)CC(=O)NN=Cc2ccncc2)cc1` returned a viability index of 0.878.

As to `CCOC(=O)c1c(C)n(-c2ccccc2)c2ccc(OC(=O)c3ccccc3NC(=O)CC)cc12`, the viability index was 1.14.

Take `COCCN1C(=O)c2[nH]nc(-c3ccccc3O)c2C1c1ccc(SC)cc1` (stereo unspecified): the viability index was 1.33.

Regarding `COC(=O)C1=CN(Cc2ccc(OC)cc2)C=C(C(=O)OC)C1c1cccs1`, the viability index was found to be 0.734.

`CCCCNC(=O)N1CCN(C(=O)C(Cc2c[nH]c3ccccc23)NC(=O)Nc2cccc(C#N)c2)CC1C` (stereo unspecified) registered a viability index of 0.613.

With `O=C(Nc1cccc(C(F)(F)F)c1)c1ccc(-c2cccs2)cc1`, the viability index was 0.859.

In the case of `Cc1c[nH]c(CCNCc2ccc(OCC(O)CN(C)Cc3ccccc3)cc2)n1` (stereo unspecified), the viability index turned out to be 0.923.

For `COC(=O)[C@@H]1C[C@H](NC(=O)c2[nH]c3ccc(Cl)cc3c2-c2ccccc2)CN1Cc1cc(OC)cc(OC)c1`, the viability index was determined as 1.31.

Regarding `O=C(Nc1ccc(-c2nnc(-c3ccc(NC(=O)c4ccccc4[N+](=O)[O-])cc3)o2)cc1)c1ccccc1[N+](=O)[O-]`, the viability index worked out at 0.756.

As to `O=C(CCn1c(=O)[nH]c2ccccc21)NCC1Cc2cccc(-c3ccncc3)c2O1` (stereo unspecified), the viability index turned out to be 0.894.

The molecule `OC(COc1ccccc1CNCCN1CCCC1)CN1CCc2ccccc2C1` (stereo unspecified) yielded a viability index of 0.971.

In turn, `CCCCNC(=O)c1nn(-c2ccc(OC)cc2)c(=O)c2ccccc12` yielded a viability index of 0.946.

`COc1ccccc1Cn1c(SCC(=O)Nc2cccc(C(F)(F)F)c2)nc2ccc(Br)cc2c1=O`: the viability index was determined as 0.723.

As to `CC(=O)OC1CCC2(C)C(CCC3C2CCC2(C)C3CC(O)C2(O)C(C)=O)C1` (stereo unspecified), the viability index was found to be 0.888.

Turning to `CCN(CC)CCN1C(=O)c2ccccc2NC1c1ccc(Br)cc1` (stereo unspecified), the viability index amounted to 0.638.

As to `CCOc1ccc(NCc2ccc(O)c3ncccc23)cc1`, the viability index is 0.949.

As to `CCCNC1=C(N(C(C)=O)c2cccc(F)c2)C(=O)c2ccccc2C1=O`, the viability index was 0.0245.

`CC(C)CCN(CCC(C)C)CC(O)Cn1c2ccc(Br)cc2c2cc(Br)ccc21` (stereo unspecified) gave a viability index of 0.71.
